According to PubChem BioAssay AID445 (National Center for Advancing Translational Sciences (NCATS), 2006):
Hit rate of the full screen: of about 110,000 compounds, about 40 (0.04%) were called active. The inconclusive results got no clear call from the source; some entries with a clear call stand among them for comparison. Calls come from the whole dose curve; as a rule, active = well fitted curve in the direction sought with a large enough effect in the signal ratio (not every such curve was filed as active); inconclusive = small, poorly fitted or top-dose-only effect, or a change in a side signal; inactive = flat fitted curve, though single readings scatter; the % refers to the signal ratio. A potency beside an inconclusive call is a rough fit, not a confirmed value.

Test: IkB Signaling;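 for IkBa stabilization activation: 0% = basal untreated cells and 100% = reference inhibitor full response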
Conditions: ABC-DLBCL IkBa-CBG/CBR dual luciferase ratio (green luciferase fused to IkBa over red control in OCI-Ly3 lymphoma cells), 4 h; IkBa stabilization activation: at 57.1 µM (top of the series), scaled: untreated 0%, proteasome inhibitor 100% unless noted
Outline: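 In this assay, an IκBα–CBG68 fusion accumulates when IKK-driven degradation is blocked; native CBR normalizes for cell number. OCI-Ly3 cells were treated 4 h with compound and doxycycline, then green and red light read after Chroma-Glo addition.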
Potency is the fitted concentration of half-maximal effect.

Compound | IkBa stabilization activation | Potency
Cc1nc2ccc(NC(=O)N3CCSCC3)cc2nc1C | inactive | –
CSc1ccc(CCNC(=O)NCc2noc3ccccc23)cc1 | inconclusive: -1.48% [signal inhibitor] | –
CCOC(=O)c1cc(S(=O)(=O)Nc2cc(OC)ccc2OC)[nH]n1 | inactive | –
COc1ccc(CNc2nc(-c3ccco3)nn2S(=O)(=O)c2ccc(Cl)cc2)cc1OC | inconclusive: -0.142% [signal inhibitor] | –
COc1ccc(Cl)cc1NC(=O)c1cc2c(=O)n3ccccc3nc2s1 | inactive | –
O=C(CSc1cn(CC(=O)N2CCCC2)c2ccccc12)Nc1ccc(Cl)cc1 | inconclusive: 5.68% [signal inhibitor] | –
CCCCCCCCCCCCC/C=C\[C@H](O)[C@H](N)CO | inactive | –
O=C(OCC#CCSc1nnc(-c2ccc(Br)cc2)o1)c1ccco1 | inactive | –
CCN(CC)c1ccc(-n2cc3c(=O)n(C)c(=O)n(C)c3c2)cc1 | inactive | –
CC(=O)c1cc(-c2ccccc2)n(CC(=O)NCc2cccs2)c1C | inactive | –
CCN1C(=O)CC(N2CCN(c3ccc(C(=O)c4ccccc4)cc3)CC2)C1=O (stereo unspecified) | inactive | –
COc1cccc(NC(=O)c2oc3ccccc3c2NC(=O)c2cc3ccccc3o2)c1 | inconclusive: 3.52% [signal inhibitor] | –
CCCOC(=O)Nc1nc2ccccc2o1 | – | inconclusive: 31.6 µM [signal inhibitor, partial curve]
COCCCNC(=O)c1ccc(C)c(-n2c(C)nc3cccnc32)c1 | inactive | –
O=S(=O)(Nc1ccc(F)cc1F)c1ccc(-n2cccn2)cc1 | inconclusive: -0.925% [signal inhibitor] | –
CC(C)c1ccc(Nc2nc(NCc3ccco3)nc(N3CCOCC3)n2)cc1 | inconclusive: 1.36% [signal inhibitor] | –
O=C(Nc1cccc(Cl)c1)Nc1ccc2c(c1)OCO2 | inconclusive: 1.66% [signal inhibitor] | –
COc1ccc(CN/C(C)=C(/C#N)C(N)=O)cc1OC | inactive | –
CCN(CC)c1ccc2cc(-c3nc(-c4ccccc4F)no3)c(=O)oc2c1 | – | inconclusive: 1.26 µM [signal inhibitor, full curve]
Cc1cc(C)c(S(=O)(=O)Nc2ccc(-c3ccc(N4CCCCCC4)nn3)cc2)cc1C | inconclusive: 6.85% [signal inhibitor] | –
Cc1c(NC(=O)C(C)OC(=O)CC2Sc3ccccc3NC2=O)c(=O)n(-c2ccccc2)n1C (stereo unspecified) | inconclusive: 2.88% [signal inhibitor] | –
Cc1cccc(NC(=O)CSc2nc3c(sc4ccccc43)c(=O)n2CCCC(=O)NC2CCCC2)c1 | inconclusive: 2.03% [signal inhibitor] | –
O=C(C1COc2ccccc2O1)N1CCCC1 (stereo unspecified) | inactive | –
CCNc1ncc2nc(-c3cn(C)c4ccccc34)c(=O)n(Cc3cccc(OC)c3)c2n1 | inactive: 2.35% [at 11.4 µM, scaled: untreated 0%, proteasome inhibitor 100%] | –

Compound | IkBa stabilization activation | Potency
COCCCNC(=O)CSc1nc(-c2ccc(OC)c(OC)c2)[nH]c1-c1ccc(F)cc1 | inconclusive: 5.11% [signal inhibitor] | –
Cc1ccc(S(=O)(=O)O[C@@H]2[C@H]([C@@H]3COC(C)(C)O3)O[C@H]3OC(C)(C)O[C@@H]32)cc1 | inactive: 0.391% [at 11.4 µM, scaled: untreated 0%, proteasome inhibitor 100%] | –
CCc1ccc(NC(=O)CCc2nnc3n(C)c(=O)c4sccc4n23)cc1 | inconclusive: 4.81% [signal inhibitor] | –
Cc1cc(C)cc(NC(=O)Cn2c(=O)n(Cc3ccco3)c(=O)c3oc4ccccc4c32)c1 | inconclusive: 2.78% [signal inhibitor] | –
Cc1cccc(NC(=O)C2CCCN(S(=O)(=O)c3ccc(Br)s3)C2)c1 (stereo unspecified) | inconclusive: 15.9% [signal inhibitor] | –
CCc1nnc(NC(=O)CSc2nnc(C3CCCCC3)n2-c2ccccc2)s1 | inactive | –
O=C(CSc1nnc(Cc2ccccc2)n1Cc1ccco1)NC12CC3CC(CC(C3)C1)C2 | inconclusive: 4.46% [signal inhibitor] | –
CCOC(=O)Cn1c(=O)oc2cc(S(=O)(=O)N3CCC(C(=O)OCC)CC3)ccc21 | inactive | –
O=c1c(-c2ccc(F)cc2)nc2cncnc2n1Cc1ccccc1 | inactive: -0.0883% [at 11.4 µM, scaled: untreated 0%, proteasome inhibitor 100%] | –
COc1ccc(NC(=O)Cn2nnc3sc4c(c3c2=O)CCCC4)cc1 | inconclusive: 2.13% [signal inhibitor] | –
COc1ccc(S(=O)(=O)NCc2ccco2)cc1-c1nnc2c3ccccc3c(C)nn12 | inactive | –
CCOC(=O)Nc1cc(OC)c(OC)cc1Cc1nccc2cc(OC)c(OC)cc12 | inactive | –
COc1ccc(CNC(=O)c2ccc3nc(C(C)C)oc3c2)cc1OC | inactive | –
Cc1ccc(NC(=O)CN2C(=O)COc3ccc(S(=O)(=O)Nc4ccccc4)cc32)c(C)c1 | inconclusive: 0.676% [signal inhibitor] | –
O=C(Nc1cccc2ccccc12)OC1C=CS(=O)(=O)C1 (stereo unspecified) | inconclusive: -10.4% [signal inhibitor] | –
CCOc1cc(C(=O)Nc2ccc(-c3nc4ccccc4s3)cc2Cl)cc(OCC)c1OCC | inconclusive: -1.3% [signal inhibitor] | –
Cc1cc(NC(=O)c2ccc(N(C)S(=O)(=O)c3ccccc3)cc2)no1 | inconclusive: 1.02% [signal inhibitor] | –
COc1ccc(C(=O)Nc2cc(S(=O)(=O)c3ccc(Cl)cc3)c(O)c(C)c2C)cc1 | inconclusive: -0.653% [signal inhibitor] | –
COc1cccc(NS(=O)(=O)c2ccc3[nH]cc(C(=O)NCCC(C)C)c(=O)c3c2)c1 | inconclusive: 16% [signal inhibitor] | –
COc1ccccc1NC(=O)Cn1nc(-c2ccc(C)cc2)c2c(c1=O)CCCC2 | inconclusive: 2.53% [signal inhibitor] | –
COc1ccccc1-c1nc(-c2ccccn2)no1 | – | inconclusive: 25.1 µM [signal inhibitor, partial curve]
CC(C)(C)c1ccc(C(=O)NCC(c2cccs2)S(=O)(=O)c2cccs2)cc1 (stereo unspecified) | inconclusive: 0.816% [signal inhibitor] | –
C=CCn1c(NC(=O)c2ccccc2)c(C#N)c2nc3ccccc3nc21 | inconclusive: 8.74% [signal inhibitor] | –
COc1cc(CN2CCc3nc(N4CCN(c5ccccn5)CC4)ncc3C2)cc(OC)c1OC | inconclusive: 5.17% [signal inhibitor] | –

Compound | IkBa stabilization activation | Potency
Brc1ccc(-c2nc3ccccc3s2)s1 | inactive | –
O=C(Nc1ccc(Cl)cc1C(F)(F)F)c1cc(S(=O)(=O)N2CCOCC2)ccc1F | inconclusive: 0.00134% [signal inhibitor] | –
Nc1c(N2CCN(c3ccccc3)CC2)c2ccccc2oc1=O | inconclusive: -2.13% [signal inhibitor] | –
COc1ccc(NC(=O)N2CC[C@@]3(CCCN(C(=O)c4csnn4)C3)C2)cc1 | inactive: -0.102% [at 11.4 µM, scaled: untreated 0%, proteasome inhibitor 100%] | –
CC(C)(C)OC(=O)N1CCC(c2c(C(=O)NCc3ccco3)cnn2-c2ccccc2Cl)CC1 | inconclusive: 4.77% [signal inhibitor] | –
COC(=O)c1ccccc1NS(=O)(=O)c1ccc2c(c1)CCCN2C(C)=O | inconclusive: 1.5% [signal inhibitor] | –
COc1ccc(-c2noc(CSc3nc4ccccc4c(=O)n3-c3ccccc3)n2)cc1OC | inactive | –
O=C(NCc1cccs1)c1ccc(CSc2nc3ccncc3n2Cc2ccccc2)cc1 | inconclusive: 2.71% [signal inhibitor] | –
CCOC(=O)c1c(NC(=O)CN2CCOCC2)sc2c1CCCC2 | inactive | –
COc1cccc(C2=NS(=O)(=O)N(C)C(C(=O)Nc3ccccc3SC)=C2)c1 | inactive | –
CCOC(=O)c1ccc(NC(=O)Cn2c(=O)cc(C(F)(F)F)c3c(C)nn(C)c32)cc1 | inconclusive: 0.396% [signal inhibitor] | –
COc1ccccc1-n1cc(C(=O)NCC(=O)N2CCN(c3ccccc3)CC2)c2ccccc2c1=O | inactive | –
Cc1ccc(Cl)cc1N1CCN(CCCNC(=O)C2COc3ccccc3C2)CC1 (stereo unspecified) | inactive | –
Cc1[nH]c2ccccc2c1SCCNC(=O)c1ccc(Br)o1 | inconclusive: 4.16% [signal inhibitor] | –
Fc1ccc(CSc2nc(NCc3ccccc3)c3ccccc3n2)cc1 | inconclusive: 0.925% [signal inhibitor] | –
Cc1occc1C(=O)N1CCN(S(C)(=O)=O)CC1 | inactive | –
COc1ccc(-c2cc(C(=O)Nc3cccc(O)c3)on2)cc1OC | inconclusive: 3.34% [signal inhibitor] | –
Cc1cccc(CSCc2ccc(C(=O)NCCc3ccccc3)o2)c1 | inconclusive: 2.83% [signal inhibitor] | –
CCCC1C(c2ccccc2)C(C#N)(C#N)C2(C#N)CC1(N)NC2=O (stereo unspecified) | inconclusive: 1.76% [signal inhibitor] | –
CCc1ccc(NC(=O)N(CCCN2CCOCC2)C(C)c2cc3cccc(OC)c3o2)cc1 (stereo unspecified) | inconclusive: 2.64% [signal inhibitor] | –
Cc1cc(C)c2c(CC(=O)Nc3ccc(S(=O)(=O)N4CCCCC4)cc3)coc2c1 | inconclusive: 0.785% [signal inhibitor] | –
O=C(c1cc2ccccc2oc1=O)N1CCN(c2ccc(F)cc2)CC1 | inconclusive: 0.372% [signal inhibitor] | –
COc1cccc(-c2nn(C)c3sc(C(=O)NCc4ccco4)cc23)c1 | inconclusive: 1.52% [signal inhibitor] | –
